# According to PMC4336329 (PLoS ONE, 2015):
# Out of some 310,000 compounds screened, about 2,200 (0.71%) showed an effect of 50% or more. The effect is printed as a negative number. Some of the results follow.
# Target: human ether-à-go-go-related gene (hERG) potassium channel (human, UniProt Q12809)
# Assay: primary screen, population patch clamp on CHO cells stably expressing hERG
# human ether-à-go-go-related gene (hERG) potassium channel, sequence (Q12809 whole entry, looked up): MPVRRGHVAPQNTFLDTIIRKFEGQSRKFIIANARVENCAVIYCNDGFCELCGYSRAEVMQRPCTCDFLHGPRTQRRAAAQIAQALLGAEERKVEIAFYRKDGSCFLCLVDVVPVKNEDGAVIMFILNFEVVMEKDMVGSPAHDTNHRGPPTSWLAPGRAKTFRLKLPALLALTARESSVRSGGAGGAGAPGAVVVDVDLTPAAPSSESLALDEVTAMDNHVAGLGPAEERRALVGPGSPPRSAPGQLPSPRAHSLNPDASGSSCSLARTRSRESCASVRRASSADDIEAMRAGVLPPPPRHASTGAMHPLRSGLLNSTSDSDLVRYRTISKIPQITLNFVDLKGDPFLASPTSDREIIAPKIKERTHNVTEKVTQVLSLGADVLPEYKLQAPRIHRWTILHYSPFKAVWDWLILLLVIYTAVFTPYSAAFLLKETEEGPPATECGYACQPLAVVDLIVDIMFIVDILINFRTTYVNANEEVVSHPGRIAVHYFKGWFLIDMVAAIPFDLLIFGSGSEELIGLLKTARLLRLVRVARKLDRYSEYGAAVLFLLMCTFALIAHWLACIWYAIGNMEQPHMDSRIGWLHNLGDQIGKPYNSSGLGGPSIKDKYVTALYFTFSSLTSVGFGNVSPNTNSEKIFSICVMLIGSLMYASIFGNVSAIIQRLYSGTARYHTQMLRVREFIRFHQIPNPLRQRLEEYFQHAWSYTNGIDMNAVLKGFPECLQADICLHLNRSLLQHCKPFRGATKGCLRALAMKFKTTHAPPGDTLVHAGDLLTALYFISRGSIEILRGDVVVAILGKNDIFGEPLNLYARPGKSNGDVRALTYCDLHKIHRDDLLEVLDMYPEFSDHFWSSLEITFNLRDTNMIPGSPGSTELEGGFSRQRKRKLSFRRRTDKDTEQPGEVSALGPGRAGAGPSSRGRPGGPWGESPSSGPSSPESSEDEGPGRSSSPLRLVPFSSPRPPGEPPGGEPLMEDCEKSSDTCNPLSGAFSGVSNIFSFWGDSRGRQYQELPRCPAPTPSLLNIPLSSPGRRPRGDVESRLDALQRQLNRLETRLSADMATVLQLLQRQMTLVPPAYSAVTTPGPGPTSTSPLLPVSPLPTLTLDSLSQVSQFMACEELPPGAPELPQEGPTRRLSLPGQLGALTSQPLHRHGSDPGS
row,Compound,"hERG current change (%, negative = inhibition) at 1uM"
1,CCCCOC(=O)CCc1c(C)n[nH]c1C,1.65%
2,Cc1csc(SCC(=O)N(C)c2c(N)n(Cc3ccccc3)c(=O)[nH]c2=O)n1,7.97%
3,CCc1ccc(OCC(O)CN2CCN(c3ccccn3)CC2)cc1.Cl (stereo not drawn),-45.9%
4,CCOC(=O)CSc1nc(C)c2cc(OC)ccc2n1,8.23%
5,CC(C)c1ccc(NCCC(=O)c2cccs2)cc1,5.04%
6,O=C(NCc1ccccc1Cl)/C(=C\c1cccnc1)NC(=O)c1ccccc1,-10.3%
7,Cc1csc(NC(=O)c2ccc(C)s2)n1,9.89%
8,O=C(NCc1ccco1)/C(=C\c1ccco1)NC(=O)c1cccs1,-1.88%
9,CCCCNC(=O)c1onc(CSc2ccc(Cl)cc2)c1C(=O)O,-0.733%
10,CCN1CCN(Cc2c(O)ccc3c(=O)c(-c4ccc(OC)c(OC)c4)c(C(F)(F)F)oc23)CC1,2.89%
11,CCOC(=O)Cc1csc(NC(=O)c2ccoc2C)n1,7.62%
12,N#CCC(N)=C(C#N)C#N,-3.07%
13,Cc1onc(-c2ccccc2)c1C(=O)N1CCN(c2ccccc2)CC1,16.1%
14,COCC(=O)N1CCC(Oc2ccc(C(=O)NC(C)c3nc(C)sc3C)cc2)CC1 (stereo not drawn),14.6%
15,c1ccc(Cn2nnnc2-c2ccco2)cc1,1.7%
16,Cc1cc(C)c(NC(=O)c2ccc(CN3CCc4ccccc4C3)cc2)c(C)c1,9.29%
17,Cn1cnc(S(=O)(=O)Nc2ccccc2N2CCOCC2)c1,5.97%
18,COc1ccc(C(C(=O)NC2CCCC2)N(C(=O)c2ccco2)c2cc3c(cc2C(C)=O)OCO3)cc1 (stereo not drawn),10.1%
19,COc1ccc(C(=O)OCc2ccc(C)cc2)cc1S(=O)(=O)N1CCOCC1,1.9%
20,COCCNC(=O)/C(C#N)=C/c1ccc(OCc2ccccc2)cc1,18%
21,Br.N=C(N)SCCc1cnc[nH]1,8.33%
22,COC(=O)c1ccc2c(=O)[nH]c(COC(=O)CCC(=O)c3ccc(Cl)cc3)nc2c1,2.37%
23,CCOc1ccccc1C(=O)NC1CCN(CC(=O)Nc2cc(OC)ccc2OC)CC1,-25.6%

row,Compound,"hERG current change (%, negative = inhibition) at 1uM"
1,O=C(C1CCN(S(=O)(=O)N2CCC3(CC2)OCCO3)CC1)N1CCN(Cc2ccccc2)CC1,9.8%
2,COc1ccc(C(=O)N/C(=C\c2cn(S(=O)(=O)N(C)C)c3ccccc23)C(=O)NC(C)C)cc1,15.9%
3,COC(=O)C1=C(N)N(c2ccccc2C(F)(F)F)C2=C(C(=O)CCC2)C1c1ccc2c(c1)OCO2 (stereo not drawn),16.2%
4,CC(C)C(NC(=O)COc1ccc2ccccc2c1)C(=O)N/N=C/C=C/c1ccccc1 (stereo not drawn),11.3%
5,O=C(CCNS(=O)(=O)c1ccccc1)Nc1ccccc1,17.8%
6,CN(CC(=O)NCc1ccccc1)S(=O)(=O)c1ccc2c(c1)CCC(=O)N2,9.2%
7,CN(C)c1ccc(C(CNC(=O)Cc2cccc3ccccc23)N(C)C)cc1 (stereo not drawn),5.41%
8,CCCCNCc1cc(OC)c(OCC(N)=O)cc1Br,14.8%
9,COc1cc2c(cc1OC)C(COc1ccccc1OC)N(C(C)=O)CC2 (stereo not drawn),18.9%
10,CCOC(=O)N1CCC(C(N)=O)CC1,13.2%
11,O=C(N/N=C/C=C/c1ccco1)c1cnccn1,9.26%
12,O=c1c2ccc([N+](=O)[O-])cc2ncn1Cc1ccccc1C(F)(F)F,-10.5%
13,CC(=NCCCn1ccnc1)c1c(-c2ccccc2)[nH]n(-c2nc3ccccc3s2)c1=O,-5.59%
14,CC(=O)NC(C)c1cc(Cl)c2cccnc2c1O (stereo not drawn),12.1%
15,CC(=O)NC(c1ccc(C)cc1)c1cc(Cl)c2cccnc2c1O (stereo not drawn),16.3%
16,O=C(Nc1ccc(Br)cc1)c1cccc2c1C(=O)N(C1CCCCC1)C2,12.4%
17,COc1ccc2nc(C)cc(N3CCOCC3)c2c1,7.31%
18,CCn1c(COc2ccc(Cl)cc2)nnc1SC1CCc2ccccc2C1=O (stereo not drawn),15.6%
19,Cc1noc(C)c1S(=O)(=O)Nc1ccc(C(C)C)cc1,-2.91%
20,COc1ccc(N(C)C(=O)c2cc3c(Cl)nc4ccccc4c3s2)cc1,-2.25%
21,COc1ccc(S(=O)(=O)N2CCC(c3cc(-c4cccc5ccccc45)n[nH]3)CC2)cc1,16.2%
22,O=S(=O)(NCC1NCCc2ccccc21)c1ccccc1 (stereo not drawn),-3.85%
